Source: the supplement of paper PMC12217912
The other results are listed elsewhere or left out. The full chains were built here from the parent and the listed change. Values near 0.05 are background.

B1: TEV protease; numbered along this chain (parent)
chain: MGESLFKGPRDYNPISSSICHLTNESDGHTTSLYGIGFGPFIITNKHLFRRNNGTLVVQSLHGVFKVKDTTTLQQHLVDGRDMIIIRMPKDFPPFPQKLKFREPQREERICLVTTNFQTKSMSSMVSDTSCTFPSGDGIFWKHWIQTKDGQCGSPLVSTRDGFIVGIHSASNFTNTNNYFTSVPKNFMELLTNQEAQQWVSGWRLNADSVLWGGHKVFMVKPEEPFQPVKEATQL

Variants of: B1
Experiment: raw area under fraction-flipped curve 0-4 h after induction (AUC4h, not background-subtracted), DNA-recorder readout of cleavage of the substrate (dimensionless); higher = more cleavage of the substrate by the protease variant
Conditions: temperature: 34 °C; time window: 0-4 h after rhamnose induction
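Note: Bxb1 expression induced with 0.2% (w/v) L-rhamnose at OD600 near 0.5, cultures sampled hourly, flipped fraction per protease–substrate barcode pair counted by paired-end Illumina sequencing.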

| Variant | area with substrate ENLYDQS | area with substrate ENLYGQS | area with substrate ENLYHQS | area with substrate ENLYIQS | area with substrate ENLYKQS | area with substrate ENLYPQS | area with substrate ENLYQQS | area with substrate ENLYRQS | area with substrate ENLYTQS | area with substrate ENLYVQS | area with substrate ENLYWQS | area with substrate ENLYEQS | area with substrate ENLYMQS | area with substrate ENLYNQS | area with substrate ENLYSQS | area with substrate ENLYLQS | area with substrate ENLYYQS |
| --- | --- | --- | --- | --- | --- | --- | --- | --- | --- | --- | --- | --- | --- | --- | --- | --- | --- |
| D149Q | 0.0661 | 0.0863 | 0.0584 | 0.127 | 0.0243 | 0.0646 | 0.0563 | 0.0672 | 0.0607 | 0.106 | 0.0698 |  |  |  |  |  |  |
| G153N | 0.0468 | 0.0476 | 0.0591 | 0.0448 | 0.0515 | 0.0458 | 0.0344 |  |  | 0.0661 |  | 0.0547 | 0.0566 |  |  |  |  |
| L156K | 0.0811 | 0.0645 | 0.0372 | 0.0434 | 0.0634 |  | 0.0321 | 0.0526 |  |  | 0.0528 | 0.0551 | 0.0517 | 0.0511 | 0.0617 |  |  |
| I164E | 0.0475 | 0.0805 | 0.0574 | 0.042 | 0.0492 | 0.0441 | 0.0425 | 0.0652 | 0.0555 |  |  | 0.0505 | 0.0508 | 0.056 | 0.0578 | 0.0531 | 0.0255 |
| I164H | 0.0617 | 0.0585 | 0.052 | 0.0478 | 0.0423 | 0.0452 | 0.0351 |  |  | 0.06 | 0.0472 | 0.061 | 0.0543 | 0.056 |  |  |  |
| V165D | 0.0613 | 0.034 | 0.051 | 0.0558 | 0.0531 | 0.0664 | 0.0668 | 0.0379 | 0.0395 | 0.053 | 0.0569 | 0.0687 | 0.0442 | 0.0546 | 0.0655 |  |  |
| G166Q | 0.044 | 0.0501 | 0.051 | 0.0529 | 0.0509 |  | 0.0482 | 0.0519 |  |  | 0.0542 | 0.0505 | 0.0519 | 0.0645 |  |  | 0.0479 |
| G166T | 0.0503 | 0.0352 | 0.0534 |  | 0.0557 | 0.0497 | 0.0614 | 0.0552 | 0.0403 | 0.0575 | 0.0515 | 0.0522 | 0.045 | 0.0728 | 0.0421 | 0.0556 | 0.0611 |
| S169N | 0.0626 | 0.0583 | 0.0622 | 0.0678 | 0.0737 | 0.0582 | 0.051 | 0.0636 |  | 0.0861 | 0.049 | 0.0681 |  |  | 0.053 | 0.0806 | 0.0355 |
| N177V | 0.0618 | 0.0739 | 0.0797 | 0.147 |  | 0.0898 | 0.0675 | 0.0603 |  | 0.131 |  | 0.0682 | 0.133 | 0.076 | 0.0936 |  |  |
| K185P | 0.0619 |  | 0.0147 |  | 0.0317 | 0.0268 |  |  | 0.0779 |  |  | 0.0606 | 0.0789 |  | 0.0698 |  |  |
| N193P | 0.0597 |  | 0.0788 |  | 0.0628 | 0.0439 | 0.0724 | 0.0573 | 0.0591 |  |  | 0.0701 | 0.0642 |  | 0.0696 |  | 0.051 |
| E195C | 0.0637 | 0.0637 | 0.0719 |  | 0.0533 |  | 0.059 | 0.0589 | 0.0796 | 0.119 |  | 0.067 | 0.0688 | 0.0893 | 0.0767 |  | 0.0583 |
| Q197C | 0.0475 | 0.078 | 0.0757 | 0.089 | 0.0563 | 0.0675 |  | 0.0635 |  | 0.0834 | 0.0779 | 0.0639 | 0.107 | 0.0444 | 0.0684 |  |  |
